Measurements: PubChem BioAssay (NCATS)
Inconclusive means that the source gave no clear call. Such entries were picked first, then a sample of the others. No potency is given beside an inconclusive call; the fits are too rough. Activity calls are given as the source filed them. Calls come from the whole dose curve; as a rule, active = well fitted activation curve with a large enough effect; inconclusive = small, poorly fitted or top-dose-only effect, or another doubt; inactive = no such curve, though single readings can be large or run the other way.

Assay: Cell Proliferation Assay against the TMD8 Cell Line (Caspase readout at 8 hrs) (AID 651713)
Conditions: TMD8 lymphoma cells, caspase activation luminescence; caspase activation: at 46.1 µM (top of the series)
How it was run: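 TMD8 cells in RPMI plus 5% FBS were treated with compound for 8 h at 37C. Caspase 3/7 activation was read by Caspase-Glo luminescence. Percent activity was scaled from DMSO (0%) to 9.2 uM bortezomib final (100%).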
Potency is the fitted concentration of half-maximal effect; tags give direction and shape of the fitted curve.

| Structure (SMILES) | caspase activation | Potency |
| --- | --- | --- |
| Cc1cccc(C#Cc2ccccc2)n1 | inconclusive: -73.2% [activator] |  |
| Cc1nc(N)sc1-c1ccnc(Nc2ccc(N3CCOCC3)cc2)n1 |  | inconclusive [activator, full curve] |
| O=C(O)Cc1cccc(OCCCN(Cc2cccc(C(F)(F)F)c2Cl)CC(c2ccccc2)c2ccccc2)c1 |  | inconclusive [activator, single point] |
| OCCC#Cc1nc(-c2ccc(F)cc2)c(-c2ccncc2)n1CCCc1ccccc1 |  | inconclusive [activator, single point] |
| COc1cc2nc(-c3ccc(N4CCN(C)CC4)cc3)nc(NCCN3CCOCC3)c2cc1OC |  | active: 29.6 µM |
| CN1CC(=O)N/C1=N/C(=O)Nc1cccc(Cl)c1 | inconclusive: -70.3% [activator] |  |
